Source: PubChem BioAssay AID493208 (National Center for Advancing Translational Sciences (NCATS), 2011)
Hit rate of the full screen: of about 44,000 compounds, about 340 (0.77%) were called active. Not shown: some 5% with an inconclusive outcome. Calls come from the whole dose curve; as a rule, active = well fitted inhibition curve with a large enough effect; inconclusive = small, poorly fitted or top-dose-only effect; inactive = flat fitted curve, though single readings scatter. This is one part of the list.

assay: Acumen qHTS Assay for Inhibitors of the mTORC1 Signaling Pathway in MEF (Tsc2-/-, p53-/-) Cells: Sytravon; settings: phospho-rpS6 immunofluorescence/PI, 24 h; series mostly up to 38.3 µM; activity change, negative = inhibition: at the top concentration;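 note: plate controls were DMSO for no effect and rapamycin for full effect; nearly all actives have a fitted effect of over 50% in size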
Outline: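 Compounds act on Tsc2-/-, p53-/- fibroblasts carrying an empty vector for 24 h before fixation and dual staining for phospho-S6 and DNA (propidium iodide). Values are percentages of cells above a rapamycin-defined pS6/PI threshold.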

Activity change, negative = inhibition, inactive:
O=C(NCc1ccc2c(c1)CCN2C(=O)c1ccc(F)cc1)c1ccc(Br)o1 -1.53%, COCCCN1C(=O)N(c2ccccc2)C(=O)C1CC(=O)Nc1ccc(F)cc1 (centres undefined) -5.87%, Cc1cc(C)c(NC(=O)Cn2nc3c(cc2=O)CCCC3)c(C)c1 2.31%, COc1ccccc1NC(=O)C1=C(C)Nc2c(C(=O)Nc3ccc(F)cc3)cnn2C1c1ccc(Cl)cc1 (centres undefined) 2.24%, O=C(Nc1ccc(S(=O)(=O)Nc2ccccc2)cc1)N1CCCC1 1.12%, COc1ccccc1NC(=O)N1CC(=O)Nc2sc3c(c2C1c1ccccc1)CCCC3 (centres undefined) 4.09%, COc1ccc(-c2noc(-c3ccc(NCc4ccc(C)cc4)c([N+](=O)[O-])c3)n2)cc1OC -8.41%, Cn1c(=O)c2c(nc(SCC(=O)Nc3ccc(OC(F)(F)F)cc3)n2Cc2cccc(C(F)(F)F)c2)n(C)c1=O -8.06%, Cc1ccc(S(=O)(=O)Nc2cc3c(cc2C)n(C)c(=O)c(=O)n3C)cc1 -1.83%, Cc1ccc(-c2onc(C)c2C)cc1S(=O)(=O)N1CCCCC1 -16.6%, Cc1ccc(CSC2=Nc3ccccc3C3=NC(CCC(=O)N4CCN(c5ccccc5)CC4)C(=O)N23)cc1 (centres undefined) -0.406%, CCOC(=O)c1c(N)n(-c2ccc(C)c(C)c2)c2nc3ccccc3nc12 0.166%, O=C(Cn1c(=O)n(-c2ccc(F)cc2)c(=O)c2sc3ccccc3c21)N1CCCC1 -2.41%, CCOC(=O)c1sc2ccccc2c1S(=O)(=O)Nc1c(C)cccc1C -7.07%, Cn1nc(C(=O)NCc2ccccc2)c2c1-c1ccccc1SC2 0.217%, COc1ccc(-n2nc(C(=O)N3CCC(C)CC3)c3c4ccccc4n(C)c3c2=O)cc1Cl 2.22%, Cc1ccccc1NC(=O)CSc1nc(-c2ccc(F)cc2)c2cccc(C)c2n1 0.717%, COc1cc(CNC(=O)c2cc(-c3ccccc3)n[nH]2)cc(OC)c1OC 2.34%, CCc1nn(CC(=O)NCCc2ccc(OC)cc2OC)c(=O)c2cc3sccc3n12 -0.7%, COc1cccc(CNC(=O)Cn2cc3c(n2)-c2c(oc(C(=O)N4CCCC4)c2C)CC3)c1OC 2.16%, CCCc1noc(-c2ccc(N3CCCCC3)c([N+](=O)[O-])c2)n1 2.87%, COc1cc(NC(=O)Cn2ncc3c(=O)oc4ccccc4c32)cc(OC)c1OC -14.5%, Cc1nc2c(cnn2-c2ccccc2Cl)c(=O)n1-c1ccc(C(C)C)cc1 -16.9%, CCc1ccc(S(=O)(=O)c2nnn3c2nc(NCCc2ccccc2)c2sccc23)cc1 -5.15%, CN(C)S(=O)(=O)N(CC(=O)NCCSCc1ccccc1Cl)c1ccccc1 -0.0873%, COc1cccc(-c2nc(SCC(=O)Nc3ccc4c(c3)OCO4)c(-c3ccccc3)[nH]2)c1 -19.8%, Cc1cccc(N2CCN(S(=O)(=O)c3cc(Br)cc4c3N(C(=O)C3CC3)CC4)CC2C)c1 (centres undefined) 2.34%, COc1ccc(CCn2cc3c(c2-c2ccccc2Br)c(=O)n(C)c(=O)n3C)cc1OC -11.8%, COc1ccc2c(Sc3ccccc3)c(C(=O)NCc3cccc(OC)c3OC)[nH]c2c1 -1.06%, CCOc1ccc(CCNC(=O)CCCc2nnc3n(CC(C)C)c(=O)c4sccc4n23)cc1 -1.81%, CCOC(=O)c1cc(S(=O)(=O)Nc2ccc(OC)c(Cl)c2)[nH]n1 1.1%, CCOC(=O)C1(C)C=C(Nc2ccc(C(N)=O)cc2)C(=O)N1c1ccccc1 (centres undefined) -8.42%, CN1C(=O)Cc2cc(S(=O)(=O)CCC(=O)Nc3cccc(C(F)(F)F)c3)ccc21 -10.6%, CC(C)OCCCn1c(SCc2cccc(Br)c2)nc2c(sc3ccccc32)c1=O -1.18%, COCCNC(=O)c1ccc2c(c1)N(Cc1cccc(Cl)c1)C(=O)c1ccccc1S2(=O)=O -6.15%, Cc1ccc(OC(=O)c2cc(-c3ccccc3)nc3ccc(C)cc23)cc1 2.64%, COc1ccccc1Oc1nc2c(c(=O)n(C)c(=O)n2C)n1Cc1cccc(Br)c1 -18.2%, CC(=O)Nc1ccc(S(=O)(=O)Nc2cccc(-c3ccc(N4CCC(C)CC4)nn3)c2)cc1 -0.635%, CCN(CC)S(=O)(=O)c1ccc2c(c1)c(=O)c(C(=O)NCc1ccc(Cl)cc1)cn2C -2.17%, COc1ccc(CC(=O)NCc2ccc3c(c2)CCN3C(C)=O)cc1OC -5.24%, CCOC(=O)C1CCN(C(=O)c2ccc3c(c2)sc2nc(-c4ccccc4)cn23)CC1 8.22%, Cc1c(C(=O)N(C)C)sc2c1c(=O)n(-c1ccc(F)cc1)c(=O)n2Cc1cc(=O)n2ccccc2n1 -8.98%, Nc1c(C(=O)Nc2ccc(Cl)c(C(F)(F)F)c2)sc2nc(-c3ccncc3)ccc12 0.197%, COc1ccc(C(=O)COC(=O)c2cc(-c3ccccc3)nc3c(C)cccc23)cc1 5.88%, O=C1CCc2cc(S(=O)(=O)NCc3ccc(F)cc3)cc3c2N1CC3 7.14%, Cc1ccc(Cc2nc3ccccc3nc2SCC(=O)N2CCN(c3ccccc3F)CC2)cc1 -7.24%, CC(=O)N1CCCc2ccc(NS(=O)(=O)c3ccc(C)c(C)c3)cc21 21.9%, CCC(=O)N1CCc2cc(Br)cc(S(=O)(=O)N3CCCC(C(=O)NCc4cccc(OC)c4)C3)c21 (centres undefined) -2.69%, Cc1nc2c(-c3ccccc3)c(C)nn2c(C)c1CCC(=O)N1CCN(c2ccccc2)CC1 2.17%, Cn1nc(C(=O)N2CCN(c3cccc(Cl)c3)CC2)c2c1-c1ccccc1S(=O)(=O)C2 11.5%, CCCCCn1c(NCc2ccccc2OC)nc2ccccc21 -5.37%, CCCS(=O)(=O)c1ncc(Cl)c(C(=O)Nc2c(C(=O)c3ccccc3)oc3ccccc23)n1 1.72%, CCc1cc2c(cc3c(=O)n(CC(=O)N4CCC(C)CC4)nc(CC)n32)s1 0.318%, CCc1ccc(-n2c(=O)c3ccc(C(=O)NCCc4ccccc4)cc3n(CC(N)=O)c2=O)cc1 -6.45%, CCS(=O)(=O)N1CCc2cc(C(=O)Nc3ccc(C)c(Cl)c3)ccc21 0.0617%, Cc1ccc2c(c1)C(c1ccccc1)N(C(=O)c1ccc(OC(C)C)cc1)CC(=O)N2 (centres undefined) -10.6%, Cc1cccc(CCNC(=O)Cn2ncc3c(=O)oc4ccccc4c32)c1 1.94%, Cc1c2cnn(-c3ccccc3)c(=O)c2c(C)n1CC(=O)NCc1ccccc1Br 0.155%, CC(=O)c1cccc(NC(=O)C(Cc2ccccc2)NS(=O)(=O)c2ccc(Br)s2)c1 (centres undefined) 2.48%
